The shares of active, inactive and inconclusive entries below differ from those in the screen. For some of these results: Potencies of inconclusive entries are doubtful fits and often do not repeat. Active and inactive are the calls of the source. Unless noted, calls come from the whole dose curve; as a rule, active = well fitted curve in the direction sought with a large enough effect; inconclusive = small, poorly fitted or top-dose-only effect, or another doubt; inactive = no such curve, though single readings can be large; an effect the other way counts as inactive or inconclusive.
Legend:
[1] = qHTS Assay for Identification of Small Molecule Antagonists for NFkB Signaling Pathway (AID 895; active = well fitted inhibition curve with a large enough effect in the signal ratio, with a control signal flat, not every such curve was filed as active; inconclusive = small, poorly fitted or top-dose-only effect, or effect the other way, or a change in a side signal; the % refers to the signal ratio; note: potency is the fitted concentration of half-maximal effect); conditions: NFkB beta-lactamase reporter cells, FRET ratio 460/530, stimulated with 10 pM TNF alpha; activity change, negative = inhibition: at 38.3 µM (top of the series)
In short: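 NFkB-bla ME-180 cervical carcinoma cells with beta-lactamase reporter under NFkB response element; compounds added, then TNF alpha at 10 pM final (EC50), 5 h at 37 C. LiveBLAzer substrate 2 h, room temperature; emission 460/530 nm at 405 nm excitation.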

[2] = qHTS Assay for Identification of Small Molecule Agonists for Thrombopoietin (TPO) Signaling Pathway (AID 917); note: potency is the fitted concentration of half-maximal effect
In short: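 Murine Ba/F3 cells expressing human TPO receptor and GPIIb-promoter luciferase, IL-3-starved overnight, given compound plus TPO at 26 pM (EC50). After 24 h at 37 C, 5% CO2, luminescence read.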

[3] = qHTS Assay for Identification of Small Molecule Agonists for NFkB Signaling Pathway (AID 928; calls by dose curve); conditions: NFkB beta-lactamase reporter cells, blue/green ratio
In short: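 ME-180 NFkB-bla cells carry a beta-lactamase reporter under an NFkB response element. Compound plus 10 pM TNF alpha (final) was applied for 5 hrs at 37 C. After 2 hrs with LiveBLAzer substrate, 460/530 nm emission was read at 405 nm excitation.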

[4] = molecular target: Muscarinic acetylcholine receptor M1 (Rattus norvegicus) (UniProt P08482); assay: qHTS Assay for Antagonists of Acetylcholine Muscarinic M1 Receptor: Kinetic Measurement of Intracellular Calcium Response (AID 943); note: potency is the fitted concentration of half-maximal effect; nearly all actives have a fitted effect of over 75% in size
In short: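 CHO cells stably expressing rat M1 were loaded with no-wash Fluo-4 dye for 1 h at 37C, pre-incubated 10 min with compound, then challenged with EC80 carbachol (100 nM final); kinetic calcium read 4 min, peak/basal ratio.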

[5] = molecular target: Endonuclease 4 (Escherichia coli (strain K12)) (UniProt P0A6C1); assay: Counterscreen for APE1 Inhibitors: qHTS Validation Assay for Inhibitors of Endonuclease IV (AID 1708); note: potency is the fitted concentration of half-maximal effect
In short: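 2 nM enzyme was preincubated with compounds for 15 min at room temperature in 50 mM Tris-HCl pH 7.5, 50 mM NaCl, 2 mM MgCl2, 1 mM DTT, 0.01% Tween-20. 50 nM THF-abasic TAMRA/BHQ-2 duplex substrate started the reaction.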

[6] = qHTS for differential inhibitors of proliferation of Plasmodium falciparum line D10 (AID 1877);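 note: potency is the fitted concentration of half-maximal effect; parasites grown with compound for 72 h before DNA staining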
[7] = qHTS for differential inhibitors of proliferation of Plasmodium falciparum line Dd2 (AID 1882); conditions: Potency: Plasmodium falciparum Dd2 proliferation inhibition; note: potency is the fitted concentration of half-maximal effect; nearly all actives have a fitted effect of over 65% in size
In short: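 SYBR Green I DNA fluorescence read-out, ex 485/em 535 nm. Signals were normalized to 0.29 uM artemisinin and DMSO wells, then corrected using vehicle-only plates flanking each stack. Parasite growth ran 72 h in erythrocytes before lysis.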

[8] = molecular target: RecQ-like DNA helicase BLM (Homo sapiens) (UniProt P54132); assay: qHTS Validation Assay for Inhibitors of Bloom's syndrome helicase (BLM) (AID 2364); note: potency is the fitted concentration of half-maximal effect
In short: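 BLM 50 nM in 25 mM Tris-HCl pH 8.0, 5 mM NaCl, 2 mM MgCl2, 1 mM DTT, 0.01% Tween-20, 2.5 ug/ml poly(dI-dC); 15 min cpd preinc, RT. Start: 200 nM forked DNA + 2 mM ATP (final). TAMRA read, 2 reads 2 h apart.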

[9] = Validation screen for small molecules that induce DNA re-replication in MCF 10A normal breast cells (AID 463097); note: potency is the fitted concentration of half-maximal effect; nearly all actives have a fitted effect of over 60% in size
In short: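 MCF 10A cells exposed to compound 48 hr at 37 C, 5% CO2, then Hoechst-stained 40 min. Laser-scanning imaging of nuclear DNA content (405 nm ex, 500-530 nm em); re-replication scored as rise in nuclei with elevated fluorescence intensity.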

[10] = molecular target: ATP-dependent 6-phosphofructokinase (Trypanosoma brucei brucei) (UniProt O15648); assay: qHTS Validation Assay to Find Inhibitors of T. brucei phosphofructokinase (AID 485368); conditions: activity change, negative = inhibition: at 57.5 µM (top of the series); note: potency is the fitted concentration of half-maximal effect
In short: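 Activity was normalized between 1x (1.25 nM) PFK wells as no inhibition and enzyme-free wells as full inhibition, from luminescence after ADP-Glo detection of ADP made from 0.5 mM F6P and 0.1 mM ATP over 45 min.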

[11] = Quantitative high throughput screen for delayed death inhibitors of the malarial parasite plastid, 96 hour incubation (AID 488745); note: potency is the fitted concentration of half-maximal effect; nearly all actives have a fitted effect of over 70% in size
In short: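 P. falciparum carrying an integrated firefly luciferase reporter, grown in erythrocytes (2% hematocrit, 0.1% parasitemia final) in RPMI 1640/0.5% Albumax, was exposed to compound for 96 h (two generations) at 37 C, 5% CO2. Luminescence decrease indicated growth inhibition.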

[12] = Quantitative high throughput screen for delayed death inhibitors of the malarial parasite plastid, 48 hour incubation (AID 488752); note: potency is the fitted concentration of half-maximal effect; nearly all actives have a fitted effect of over 65% in size
In short: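 Erythrocytes infected with P. falciparum carrying an integrated firefly luciferase reporter (2% hematocrit, 0.1% parasitemia final) were exposed to compounds in RPMI 1640/0.5% Albumax for 48 h at 37 C, 5% CO2. Growth inhibition was scored as reduced luminescence.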

[13] = molecular target: Chromobox protein homolog 1 (Homo sapiens) (UniProt P83916); assay: qHTS Validation Assay for Inhibitors of HP1-beta Chromodomain Interactions with Methylated Histone Tails (AID 488953); note: potency is the fitted concentration of half-maximal effect; nearly all actives have a fitted effect of over 50% in size
In short: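 HP1-beta (50 nM) was preincubated 30 min at room temperature with biotinylated H3(1-18)K9me3 peptide (50 nM) in PBS pH 7.4, 0.01% Tween-20, then with compounds 30 min. AlphaScreen signal was read after streptavidin donor/nickel chelate acceptor beads (10 ug/mL final).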

[14] = molecular target: Transient receptor potential cation channel subfamily V member 1 (Homo sapiens) (UniProt Q8NER1); assay: HTS Assay for Compounds that Act as Enhancers of the Vanilloid Receptor 1 (AID 488979)
In short: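 TRPV1-expressing cells loaded with Fluo-8 calcium dye; compounds added and calcium influx read kinetically for 3 min (agonist phase), then capsaicin at EC20 added and read 2 min more for enhancement. Fluorescence ex 480/em 520 nm.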

[15] = molecular target: ATPase family AAA domain-containing protein 5 (Homo sapiens) (UniProt Q96QE3); assay: Validation screen for small molecules that inhibit ELG1-dependent DNA repair in human embryonic kidney (HEK293T) cells expressing luciferase-tagged ELG1 (AID 493107); conditions: HEK293T ELG1-luciferase level, luminescence, 5-fluorouridine co-treatment, 16 h; series mostly up to 46.1 µM; note: potency is the fitted concentration of half-maximal effect; nearly all actives have a fitted effect of over 70% in size
In short: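 HEK293T cells expressing luciferase-tagged ELG1 were co-treated with 5-fluorouridine and compound or DMSO for 16 hr at 37 °C, 5% CO2. Luciferase activity was then read with ONE-Glo after 30 min at room temperature; suppressed signal indicates blocked ELG1 function.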

[16] = Nrf2 qHTS screen for inhibitors: Validation (AID 493153; active = well fitted inhibition curve with a large enough effect in the main read-out, with a control signal flat, not every such curve was filed as active; inconclusive = small, poorly fitted or top-dose-only effect, or effect the other way, or a change in a side signal; inactive = no such curve, though single readings can be large or run the other way; note: potency is the fitted concentration of half-maximal effect)
In short: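 A549 cells carrying an ARE-driven firefly luciferase reporter, in 5% FBS OPTI-MEM, were treated with compounds in concentration-response for 18-24 h at 37°C. Viability was read by CellTiter-Fluor fluorescence, then Nrf2 activity by luciferase luminescence.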

[17] = molecular target: Ubiquitin carboxyl-terminal hydrolase 1 (Homo sapiens) (UniProt O94782); assay: Inhibitors of USP1/UAF1: Pilot qHTS (AID 504865);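 note: rhodamine fluorescence freed from ubiquitin-rhodamine substrate followed over time; potency is the fitted concentration of half-maximal effect; nearly all actives have a fitted effect of over 35% in size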
In short: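 USP1/UAF1 complex at 1 nM preincubated 15 min at room temperature with compound, then Ub-Rho substrate added at 150 nM final. Fluorescence (480/540 nm) read kinetically in 50 mM HEPES pH 7.8, 0.5 mM EDTA, 1 mM TCEP, 0.1 mg/ml BSA, 0.01% Tween-20.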

[18] = qHTS for Inhibitors of ATXN expression: Validation (AID 588378); note: potency is the fitted concentration of half-maximal effect; nearly all actives have a fitted effect of over 75% in size
In short: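 HEK293 cells carrying ATXN2-firefly luciferase reporter, treated with compound 24 h at 37 °C. Viability read first by CellTiter-Fluor (405/525 nm), then reporter expression by Bright-Glo luminescence; controls were a known ATXN2 expression inhibitor and a luciferase inhibitor.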

[19] = molecular target: Glutaminase kidney isoform, mitochondrial (Homo sapiens) (UniProt O94925); assay: qHTS for Inhibitors of Glutaminase (GLS): LOPAC Validation (AID 624146); note: potency is the fitted concentration of half-maximal effect; nearly all actives have a fitted effect of over 60% in size
In short: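 Human kidney-isoform GLS in 45 mM KH2PO4 pH 8.2, 0.02% Tween-20, with compound, started with 1mM L-Glutamine (added stock). Glutamate oxidase/HRP/Amplex red coupled fluorescence read at start and after 30 min at RT.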

Measured: Potency
Tags give direction and shape of the fitted curve or compound fluorescence and quenching.

UniProt Q96QE3, sequence (Q96QE3 whole entry, looked up, the tested form may be a part): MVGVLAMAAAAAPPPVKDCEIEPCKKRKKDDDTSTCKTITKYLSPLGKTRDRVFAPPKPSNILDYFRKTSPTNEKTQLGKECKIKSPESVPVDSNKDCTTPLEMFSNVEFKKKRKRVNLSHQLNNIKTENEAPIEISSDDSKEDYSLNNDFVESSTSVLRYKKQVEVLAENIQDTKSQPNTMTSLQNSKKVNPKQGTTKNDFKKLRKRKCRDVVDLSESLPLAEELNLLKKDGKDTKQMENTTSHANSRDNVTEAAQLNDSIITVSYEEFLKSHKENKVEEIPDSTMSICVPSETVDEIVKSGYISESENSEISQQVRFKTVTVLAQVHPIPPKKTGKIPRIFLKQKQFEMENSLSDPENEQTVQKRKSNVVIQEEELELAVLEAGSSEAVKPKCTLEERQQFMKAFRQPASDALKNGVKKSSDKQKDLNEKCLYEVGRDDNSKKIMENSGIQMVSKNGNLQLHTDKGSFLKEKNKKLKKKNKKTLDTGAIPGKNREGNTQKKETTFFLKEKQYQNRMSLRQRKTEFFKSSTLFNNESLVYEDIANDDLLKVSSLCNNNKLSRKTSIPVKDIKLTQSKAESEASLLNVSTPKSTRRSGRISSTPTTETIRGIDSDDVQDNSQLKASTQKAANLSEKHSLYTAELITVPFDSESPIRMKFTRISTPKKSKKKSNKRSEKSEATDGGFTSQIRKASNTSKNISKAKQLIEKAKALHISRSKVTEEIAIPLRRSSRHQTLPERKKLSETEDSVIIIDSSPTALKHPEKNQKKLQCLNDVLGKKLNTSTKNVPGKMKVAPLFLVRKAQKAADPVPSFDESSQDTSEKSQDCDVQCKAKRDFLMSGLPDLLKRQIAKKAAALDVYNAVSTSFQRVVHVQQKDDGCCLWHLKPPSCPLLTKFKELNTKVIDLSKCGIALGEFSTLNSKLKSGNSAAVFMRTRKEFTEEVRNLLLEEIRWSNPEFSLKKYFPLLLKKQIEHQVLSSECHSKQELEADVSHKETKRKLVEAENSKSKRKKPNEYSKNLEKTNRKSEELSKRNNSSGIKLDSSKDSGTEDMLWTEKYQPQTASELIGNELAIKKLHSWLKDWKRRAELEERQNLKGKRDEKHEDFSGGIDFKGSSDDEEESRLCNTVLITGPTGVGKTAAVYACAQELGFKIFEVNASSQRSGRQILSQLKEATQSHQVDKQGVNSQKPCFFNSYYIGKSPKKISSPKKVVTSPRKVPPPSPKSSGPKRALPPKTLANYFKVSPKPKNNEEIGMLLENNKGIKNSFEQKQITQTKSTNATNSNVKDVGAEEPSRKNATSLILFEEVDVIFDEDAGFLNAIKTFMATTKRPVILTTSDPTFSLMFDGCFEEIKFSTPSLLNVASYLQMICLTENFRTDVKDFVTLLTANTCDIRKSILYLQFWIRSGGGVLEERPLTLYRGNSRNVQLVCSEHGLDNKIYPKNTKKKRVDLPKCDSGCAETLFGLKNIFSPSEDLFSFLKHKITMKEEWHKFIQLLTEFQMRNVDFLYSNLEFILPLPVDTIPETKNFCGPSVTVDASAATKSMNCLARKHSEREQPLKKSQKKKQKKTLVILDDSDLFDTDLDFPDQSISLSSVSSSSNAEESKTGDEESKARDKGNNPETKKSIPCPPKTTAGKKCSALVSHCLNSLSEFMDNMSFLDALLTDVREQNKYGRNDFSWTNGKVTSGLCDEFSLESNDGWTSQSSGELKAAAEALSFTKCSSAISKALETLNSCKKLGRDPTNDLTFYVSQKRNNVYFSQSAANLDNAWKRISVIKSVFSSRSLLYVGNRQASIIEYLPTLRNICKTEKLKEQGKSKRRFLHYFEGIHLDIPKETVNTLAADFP
UniProt P08482, sequence (P08482 whole entry, looked up): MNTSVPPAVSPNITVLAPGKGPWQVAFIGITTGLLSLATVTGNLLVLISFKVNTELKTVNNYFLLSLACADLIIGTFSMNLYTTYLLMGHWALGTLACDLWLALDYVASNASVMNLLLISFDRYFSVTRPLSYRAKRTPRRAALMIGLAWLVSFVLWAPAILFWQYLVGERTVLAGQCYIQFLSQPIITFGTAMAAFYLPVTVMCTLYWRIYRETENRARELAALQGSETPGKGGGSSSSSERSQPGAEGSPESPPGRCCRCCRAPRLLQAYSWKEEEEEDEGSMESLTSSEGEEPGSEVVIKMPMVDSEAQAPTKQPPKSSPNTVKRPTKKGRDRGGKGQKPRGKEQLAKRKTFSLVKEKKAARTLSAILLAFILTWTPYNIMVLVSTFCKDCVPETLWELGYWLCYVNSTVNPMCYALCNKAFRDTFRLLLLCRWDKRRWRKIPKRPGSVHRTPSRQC
UniProt O94925, sequence (O94925 whole entry, looked up, canonical isoform): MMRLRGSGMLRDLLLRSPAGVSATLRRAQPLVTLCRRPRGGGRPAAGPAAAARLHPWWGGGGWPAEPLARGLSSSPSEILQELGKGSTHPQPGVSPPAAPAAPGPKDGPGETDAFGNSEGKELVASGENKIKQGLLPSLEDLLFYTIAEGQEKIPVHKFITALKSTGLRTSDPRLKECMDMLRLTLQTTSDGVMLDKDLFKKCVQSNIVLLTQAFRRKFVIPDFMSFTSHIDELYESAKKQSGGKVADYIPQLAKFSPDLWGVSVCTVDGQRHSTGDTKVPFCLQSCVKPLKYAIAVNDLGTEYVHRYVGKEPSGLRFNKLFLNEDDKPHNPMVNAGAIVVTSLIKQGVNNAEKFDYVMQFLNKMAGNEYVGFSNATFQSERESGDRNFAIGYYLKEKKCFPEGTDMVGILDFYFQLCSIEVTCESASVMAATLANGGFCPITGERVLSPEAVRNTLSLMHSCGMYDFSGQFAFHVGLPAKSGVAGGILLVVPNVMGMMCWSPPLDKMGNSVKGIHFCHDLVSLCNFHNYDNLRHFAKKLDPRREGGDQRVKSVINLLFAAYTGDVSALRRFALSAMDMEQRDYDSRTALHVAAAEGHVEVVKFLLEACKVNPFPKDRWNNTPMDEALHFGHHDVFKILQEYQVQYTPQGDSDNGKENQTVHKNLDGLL
UniProt O15648, sequence (O15648 whole entry, looked up): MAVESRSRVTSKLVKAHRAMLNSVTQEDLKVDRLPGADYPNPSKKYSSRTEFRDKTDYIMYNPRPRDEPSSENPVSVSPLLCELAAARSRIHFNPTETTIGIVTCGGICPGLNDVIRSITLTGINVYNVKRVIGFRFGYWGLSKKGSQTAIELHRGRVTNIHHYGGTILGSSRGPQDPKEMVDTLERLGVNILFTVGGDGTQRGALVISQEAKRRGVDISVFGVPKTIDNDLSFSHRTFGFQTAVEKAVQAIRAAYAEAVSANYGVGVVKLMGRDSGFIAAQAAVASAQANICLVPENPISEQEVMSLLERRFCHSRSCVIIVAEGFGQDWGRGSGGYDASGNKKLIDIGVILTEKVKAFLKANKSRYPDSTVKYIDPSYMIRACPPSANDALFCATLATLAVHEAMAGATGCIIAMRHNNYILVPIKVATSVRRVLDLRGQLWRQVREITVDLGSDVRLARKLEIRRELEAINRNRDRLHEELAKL
UniProt P54132, sequence (P54132 whole entry, looked up): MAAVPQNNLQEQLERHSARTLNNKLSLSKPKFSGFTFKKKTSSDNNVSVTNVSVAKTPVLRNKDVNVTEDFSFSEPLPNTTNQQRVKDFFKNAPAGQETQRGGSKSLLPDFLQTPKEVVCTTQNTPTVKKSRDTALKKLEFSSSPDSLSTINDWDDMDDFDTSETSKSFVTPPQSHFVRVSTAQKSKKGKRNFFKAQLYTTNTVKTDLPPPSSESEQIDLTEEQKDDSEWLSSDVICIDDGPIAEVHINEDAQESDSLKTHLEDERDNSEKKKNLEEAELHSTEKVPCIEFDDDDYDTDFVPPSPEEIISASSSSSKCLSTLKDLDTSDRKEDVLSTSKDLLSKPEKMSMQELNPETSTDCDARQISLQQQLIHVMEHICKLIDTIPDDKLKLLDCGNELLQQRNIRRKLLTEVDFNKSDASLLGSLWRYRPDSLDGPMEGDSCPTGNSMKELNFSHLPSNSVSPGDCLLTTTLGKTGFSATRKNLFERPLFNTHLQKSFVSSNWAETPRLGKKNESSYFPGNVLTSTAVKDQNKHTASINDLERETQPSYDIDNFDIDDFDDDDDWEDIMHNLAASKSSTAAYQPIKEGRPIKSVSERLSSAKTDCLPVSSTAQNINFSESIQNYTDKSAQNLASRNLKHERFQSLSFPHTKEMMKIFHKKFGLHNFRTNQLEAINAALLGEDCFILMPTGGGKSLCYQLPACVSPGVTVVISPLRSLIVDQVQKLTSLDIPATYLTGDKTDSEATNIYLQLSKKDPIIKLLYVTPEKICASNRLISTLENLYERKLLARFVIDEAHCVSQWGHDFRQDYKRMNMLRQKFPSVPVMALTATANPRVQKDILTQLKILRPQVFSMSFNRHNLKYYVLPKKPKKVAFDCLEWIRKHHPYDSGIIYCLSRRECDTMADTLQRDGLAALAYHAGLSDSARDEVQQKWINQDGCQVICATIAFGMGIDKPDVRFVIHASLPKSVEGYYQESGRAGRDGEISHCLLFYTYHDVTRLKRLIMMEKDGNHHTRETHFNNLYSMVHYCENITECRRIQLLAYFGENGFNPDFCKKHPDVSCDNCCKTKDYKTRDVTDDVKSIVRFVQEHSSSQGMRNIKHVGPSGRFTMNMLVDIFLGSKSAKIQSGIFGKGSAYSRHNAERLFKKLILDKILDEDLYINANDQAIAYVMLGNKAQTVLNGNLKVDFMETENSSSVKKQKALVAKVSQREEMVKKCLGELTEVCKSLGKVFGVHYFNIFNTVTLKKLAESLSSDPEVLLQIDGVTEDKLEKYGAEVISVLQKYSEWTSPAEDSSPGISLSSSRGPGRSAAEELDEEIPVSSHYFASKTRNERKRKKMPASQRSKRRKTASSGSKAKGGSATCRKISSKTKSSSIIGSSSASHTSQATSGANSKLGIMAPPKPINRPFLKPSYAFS
UniProt P83916, sequence (P83916 whole entry, looked up): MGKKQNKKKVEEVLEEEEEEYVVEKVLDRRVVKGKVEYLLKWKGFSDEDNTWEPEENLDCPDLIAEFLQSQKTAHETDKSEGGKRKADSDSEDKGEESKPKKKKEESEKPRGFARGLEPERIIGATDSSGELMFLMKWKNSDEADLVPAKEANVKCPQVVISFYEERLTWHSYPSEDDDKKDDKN

O=C1NC(=O)c2cc(Nc3ccccc3)c(Nc3ccccc3)cc21
active: [1] 10 µM | [15] 13 µM | [19] 2.51 µM
inactive: [14]
inconclusive: [2] 25.1 µM [inhibitor, single point] | [3] 10 µM [inhibitor, partial curve] | [4] 89.1 nM [inhibitor, full curve, poor fit] | [5] 7.94 µM [inhibitor, partial curve] | [6] 12.6 µM [inhibitor, partial curve] | [7] 11.2 µM [inhibitor, single point] | [8] 17.8 µM [inhibitor, partial curve] | [9] 22.4 µM [activator, single point] | [10] 30.1 µM [falling, single point] | [11] 16.5 µM [inhibitor, single point] | [12] 18.5 µM [inhibitor, single point] | [13] 79.4 µM [inhibitor, partial curve, poor fit] | [16] 16.4 µM [inhibitor, single point] | [17] 44.7 µM [inhibitor, partial curve, poor fit] | [18] 25.1 µM [inhibitor, single point]

— PubChem BioAssay (NCATS)
